From paper PMC9935832, “Calcium-dependent protein kinase CDPK16 phosphorylates serine-856 of glutamate receptor-like GLR3.6 protein leading to salt-responsive root growth in Arabidopsis^#” (Frontiers in Plant Science, 2023)
Results are given in words; binding and its absence hold for the method and conditions named. For some of these results: Binding seen in cells or lysates may run through a third protein. Some entries that bind do so weakly or less than the wild type. Sequences can lack the tags named with a protein.

T1: 14-3-3ω-YFP^C (Arabidopsis) (UniProt Q01525)
T1 sequence: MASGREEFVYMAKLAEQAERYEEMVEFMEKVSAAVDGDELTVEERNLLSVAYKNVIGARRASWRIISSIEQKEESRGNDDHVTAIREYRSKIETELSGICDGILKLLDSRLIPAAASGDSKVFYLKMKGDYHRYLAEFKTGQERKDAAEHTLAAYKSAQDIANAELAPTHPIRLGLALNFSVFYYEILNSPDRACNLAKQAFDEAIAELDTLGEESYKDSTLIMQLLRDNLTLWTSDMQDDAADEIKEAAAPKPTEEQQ

T2: GLR3.6-YFP^N (Arabidopsis) (UniProt Q84W41)
T2 sequence: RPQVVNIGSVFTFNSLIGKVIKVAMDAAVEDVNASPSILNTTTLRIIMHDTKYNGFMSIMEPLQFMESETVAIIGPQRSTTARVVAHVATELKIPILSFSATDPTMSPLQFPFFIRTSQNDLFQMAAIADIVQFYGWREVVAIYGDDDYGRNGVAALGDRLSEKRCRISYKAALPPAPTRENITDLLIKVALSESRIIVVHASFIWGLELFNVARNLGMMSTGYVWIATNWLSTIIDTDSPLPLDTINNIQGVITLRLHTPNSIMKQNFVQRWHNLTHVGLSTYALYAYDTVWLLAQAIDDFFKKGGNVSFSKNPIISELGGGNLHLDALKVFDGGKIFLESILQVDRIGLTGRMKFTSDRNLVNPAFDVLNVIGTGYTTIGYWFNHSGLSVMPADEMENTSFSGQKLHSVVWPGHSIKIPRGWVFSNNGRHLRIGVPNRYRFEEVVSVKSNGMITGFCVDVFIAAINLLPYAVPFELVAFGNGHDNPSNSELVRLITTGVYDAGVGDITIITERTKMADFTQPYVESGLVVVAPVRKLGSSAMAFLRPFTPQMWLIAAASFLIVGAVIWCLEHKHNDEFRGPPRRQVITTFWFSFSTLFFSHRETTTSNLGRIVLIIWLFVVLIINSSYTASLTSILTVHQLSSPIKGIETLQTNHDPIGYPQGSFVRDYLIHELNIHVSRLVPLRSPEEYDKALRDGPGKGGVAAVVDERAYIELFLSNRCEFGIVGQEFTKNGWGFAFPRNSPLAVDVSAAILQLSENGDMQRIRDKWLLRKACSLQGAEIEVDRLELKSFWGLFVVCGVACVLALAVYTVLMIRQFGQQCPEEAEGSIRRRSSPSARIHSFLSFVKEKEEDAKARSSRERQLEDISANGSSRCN

T3: 6xHis-14-3-3ω (Arabidopsis, UniProt Q01525 1-259)
T3 construct: End of the His tag read from the printed name 6xHis-14-3-3ω; Vector map in Appendix 1B; construct as in Chen et al. (2018); also called recombinant 6xHis-14-3-3ω; source: E. coli BL21, purified (Ni-NTA agarose); not shown: 6xHis, N-terminal, kept
T3 sequence (looked up): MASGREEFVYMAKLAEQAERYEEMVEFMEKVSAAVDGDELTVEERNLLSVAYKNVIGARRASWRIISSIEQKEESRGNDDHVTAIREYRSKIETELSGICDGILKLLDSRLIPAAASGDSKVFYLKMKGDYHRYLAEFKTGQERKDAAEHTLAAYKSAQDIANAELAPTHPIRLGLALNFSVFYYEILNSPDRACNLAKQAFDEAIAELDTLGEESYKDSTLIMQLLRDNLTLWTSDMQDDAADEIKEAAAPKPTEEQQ


Columns and labels:
[1] = biological target: T1, 14-3-3ω-YFP^C (Arabidopsis); test: split reporter; BiFC in tobacco (Nicotiana benthamiana) leaf cells after agroinfiltration, 2-3 days at 22-24°C; YFP^N and YFP^C fusions; reconstituted YFP seen by confocal microscopy; PIP2a-mCherry as plasma membrane marker
[2] = biological target: T2, GLR3.6-YFP^N (Arabidopsis); test: split reporter; BiFC analysis of Supplementary Figure S4; host and constructs not given
[3] = biological target: T1, 14-3-3ω-YFP^C (Arabidopsis); test: split reporter; BiFC in Arabidopsis protoplasts transfected with 10-20 μg plasmid DNA, 16-24 h at 22°C; reconstituted YFP seen by confocal microscopy
6xHis-14-3-3ω = biological target: T3, 6xHis-14-3-3ω; test: pull-down; 6xHis-14-3-3ω and GST-fused GLR3.6 peptides (50 μg each) mixed with Ni-NTA agarose, 4°C, 2 h; western blot with α-His and α-GST; both purified

binding [1]	binding [2]	binding [3]	binding (6xHis-14-3-3ω)	Binder
binds	binds	binds		GLR3.6-YFP^N (protein, UniProt Q84W41 26-903) RPQVVNIGSVFTFNSLIGKVIKVAMDAAVEDVNASPSILNTTTLRIIMHDTKYNGFMSIMEPLQFMESETVAIIGPQRSTTARVVAHVATELKIPILSFSATDPTMSPLQFPFFIRTSQNDLFQMAAIADIVQFYGWREVVAIYGDDDYGRNGVAALGDRLSEKRCRISYKAALPPAPTRENITDLLIKVALSESRIIVVHASFIWGLELFNVARNLGMMSTGYVWIATNWLSTIIDTDSPLPLDTINNIQGVITLRLHTPNSIMKQNFVQRWHNLTHVGLSTYALYAYDTVWLLAQAIDDFFKKGGNVSFSKNPIISELGGGNLHLDALKVFDGGKIFLESILQVDRIGLTGRMKFTSDRNLVNPAFDVLNVIGTGYTTIGYWFNHSGLSVMPADEMENTSFSGQKLHSVVWPGHSIKIPRGWVFSNNGRHLRIGVPNRYRFEEVVSVKSNGMITGFCVDVFIAAINLLPYAVPFELVAFGNGHDNPSNSELVRLITTGVYDAGVGDITIITERTKMADFTQPYVESGLVVVAPVRKLGSSAMAFLRPFTPQMWLIAAASFLIVGAVIWCLEHKHNDEFRGPPRRQVITTFWFSFSTLFFSHRETTTSNLGRIVLIIWLFVVLIINSSYTASLTSILTVHQLSSPIKGIETLQTNHDPIGYPQGSFVRDYLIHELNIHVSRLVPLRSPEEYDKALRDGPGKGGVAAVVDERAYIELFLSNRCEFGIVGQEFTKNGWGFAFPRNSPLAVDVSAAILQLSENGDMQRIRDKWLLRKACSLQGAEIEVDRLELKSFWGLFVVCGVACVLALAVYTVLMIRQFGQQCPEEAEGSIRRRSSPSARIHSFLSFVKEKEEDAKARSSRERQLEDISANGSSRCN
			no binding (tested: 50 μg each)	EGSIRRRAAPSA (peptide, UniProt Q84W41 854-865) [GST-GLR3.6-S861/862A (GST-fused peptide fragment)]
